We go through 47 sequences from paper PMC5892938.

The list shows a part of the results. At the low end of the ranking the order means little.

In this experiment the target is GST-SBP-SLBP (stem-loop binding protein) (UniProt Q14493). Kind of experiment: targeted RNA Bind-n-Seq.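 Note: DESeq read counts versus GST-SBP nonspecific binding control pulldown.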 Particulars: RBNS binding buffer: 25 mM Tris pH 7.5, 150 mM KCl, 3 mM MgCl2, 0.1% Tween, 0.5 mg/mL BSA, 1 mM DTT; 27 nM protein, 750 pM RNA pool; temperature not stated; high values mean tight binding.
As for “GGUCACGUCUCAAUCAACUCACAAGAGGGGGGGAAAACCCCUUUGCCCUCAAACUCAACAGCUCGCAGUCAAG”, the binding signal (log2 fold change) was found to be 0.0112.
With “GGUCACGUCUCAAUCAACUCAUCGUCAGGAGUUUACUCCUGCUAUUUCAACAGCUCGCAGUCAAG” the figure was 0.254.
The figure for “GGUCACGUCUCAAUCAACUCAACUCCAGGAGUUUUCUCCUGCAUUUUCAACAGCUCGCAGUCAAG” is 0.109; for “GGUCACGUCUCAAUCAACUCUAUCCCCAGGGAAAUCCCUGGUUUACUCAACAGCUCGCAGUCAAG” it is 0.0192.
The figure for “GGUCACGUCUCAAUCAACUCUUCGUCAGGAGUUUCCUCCUGUAAAUUCAACAGCUCGCAGUCAAG” is 0.024; for “GGUCACGUCUCAAUCAACUCAAAAGAGGGGGGGAAAACCCCUUUGCCCUCCAACUCAACAGCUCGCAGUCAAG” it is -0.45.
With “GGUCACGUCUCAAUCAACUCAAUCCCAGGAGUUUCCUCCUGCAAUGUCAACAGCUCGCAGUCAAG”, the binding signal (log2 fold change) was determined as 0.122.
With “GGUCACGUCUCAAUCAACUCAAUCCCCAGGGAAAUCCCUGGCAUACUCAACAGCUCGCAGUCAAG” the figure was -0.2; with “GGUCACGUCUCAAUCAACUCCACGGAGGGGGGGAAAACCCCUUUACCCUCAUCUUCAACAGCUCGCAGUCAAG”, -0.144.
With “GGUCACGUCUCAAUCAACUCUUUUUCAGGAGUUUCCUCCUGCUUUUUCAACAGCUCGCAGUCAAG” the figure was -0.0313; with “GGUCACGUCUCAAUCAACUCUCACGAGGGGGGGAAAACCCCUUUACCCUCUUUUUCAACAGCUCGCAGUCAAG”, -0.199; with “GGUCACGUCUCAAUCAACUCAUUCCCAGGAGUUUCCUCCUGUUAUUUCAACAGCUCGCAGUCAAG”, -0.191.
With “GGUCACGUCUCAAUCAACUCAUCCCCAGGAGUUUCCUCCUGUAAUCUCAACAGCUCGCAGUCAAG” the figure was 0.139; with “GGUCACGUCUCAAUCAACUCUUUCUCCAGGGAAACCCCUGGUUUUCUCAACAGCUCGCAGUCAAG”, 0.0593; with “GGUCACGUCUCAAUCAACUCAUCGCCCAGGGAAACCCCUGGUUUAUUCAACAGCUCGCAGUCAAG”, -0.0473.
Regarding “GGUCACGUCUCAAUCAACUCAUCGUCCAGGGAAAUCCCUGGUUAUCUCAACAGCUCGCAGUCAAG”, the binding signal (log2 fold change) was determined as 0.00673.
With “GGUCACGUCUCAAUCAACUCUUUCCCCAGGGAAACCCCUGGUUUACUCAACAGCUCGCAGUCAAG” the figure was 0.0377; with “GGUCACGUCUCAAUCAACUCAUCGCCCAGGGAAAACCCUGGUUUAUUCAACAGCUCGCAGUCAAG”, -0.292.
For the sequence “GGUCACGUCUCAAUCAACUCUUUUCCCAGGGAAAUCCCUGGCAUAUUCAACAGCUCGCAGUCAAG”, the binding signal (log2 fold change) was 0.112.
With “GGUCACGUCUCAAUCAACUCAUUUCCAGGAGUUUUCUCCUGUAUAUUCAACAGCUCGCAGUCAAG” the figure was 0.0558; with “GGUCACGUCUCAAUCAACUCAUCCCCAGGAGUUUUCUCCUGCAUAUUCAACAGCUCGCAGUCAAG”, 0.0745; with “GGUCACGUCUCAAUCAACUCAUUUUCCAGGGAAAUCCCUGGUAUUCUCAACAGCUCGCAGUCAAG”, 0.0873.
With “GGUCACGUCUCAAUCAACUCUCCUGAGGGGGGGAAAACCCCUUUACCCUCUUUUUCAACAGCUCGCAGUCAAG” the figure was 0.0102.
With “GGUCACGUCUCAAUCAACUCACAAGAGGGGGGGAAAACCCCUUUGCCCUCCAUAUCAACAGCUCGCAGUCAAG” the figure was 0.125; with “GGUCACGUCUCAAUCAACUCUAUUUCAGGAGUUUACUCCUGUUUUCUCAACAGCUCGCAGUCAAG”, 0.0148; with “GGUCACGUCUCAAUCAACUCAUCUUCAGGAGUUUGCUCCUGUUUUCUCAACAGCUCGCAGUCAAG”, 0.0548.
Take “GGUCACGUCUCAAUCAACUCUAUGUCAGGAGUUUACUCCUGUUUAUUCAACAGCUCGCAGUCAAG”: the binding signal (log2 fold change) worked out at 0.0418.
For “GGUCACGUCUCAAUCAACUCCUACGAGGGGGGGAAAACCCCUUUACCCUCUUUAUCAACAGCUCGCAGUCAAG”, the binding signal (log2 fold change) stood at 0.105.
With “GGUCACGUCUCAAUCAACUCUAUCCCAGGAGUUUUCUCCUGUUUUGUCAACAGCUCGCAGUCAAG” the figure was -0.145.
The figure for “GGUCACGUCUCAAUCAACUCUACUCCAGGAGUUUUCUCCUGUAUUUUCAACAGCUCGCAGUCAAG” is -0.129.
With “GGUCACGUCUCAAUCAACUCUUCGUCAGGAGUUUCCUCCUGUUUAUUCAACAGCUCGCAGUCAAG” the figure was 0.086; with “GGUCACGUCUCAAUCAACUCUACUUCAGGAGUUUUCUCCUGCUAUUUCAACAGCUCGCAGUCAAG”, -0.0336.
For “GGUCACGUCUCAAUCAACUCAAAAGAGGGGGGGAAAACCCCUUUGCCCUCCGUAUCAACAGCUCGCAGUCAAG”, the binding signal (log2 fold change) was -0.103.
For “GGUCACGUCUCAAUCAACUCAUCGCCCAGGGAAAACCCUGGUAAUUUCAACAGCUCGCAGUCAAG”, the binding signal (log2 fold change) is -0.329.
The figure for “GGUCACGUCUCAAUCAACUCAUUCUCCAGGGAAAGCCCUGGCUAUCUCAACAGCUCGCAGUCAAG” is -0.331; for “GGUCACGUCUCAAUCAACUCACUCGAGGGGGGGAAAACCCCUUUACCCUCACCUUCAACAGCUCGCAGUCAAG” it is 0.152.
The figure for “GGUCACGUCUCAAUCAACUCUUCUCCCAGGGAAAACCCUGGUUUUCUCAACAGCUCGCAGUCAAG” is 0.0576; for “GGUCACGUCUCAAUCAACUCUAUCUCCAGGGAAAUCCCUGGUAAAUUCAACAGCUCGCAGUCAAG” it is 0.183; for “GGUCACGUCUCAAUCAACUCAUCUCCCAGGGAAACCCCUGGUAUACUCAACAGCUCGCAGUCAAG” it is -0.0911.
The figure for “GGUCACGUCUCAAUCAACUCUUCUCCCAGGGAAAUCCCUGGCAUUCUCAACAGCUCGCAGUCAAG” is 0.0258; for “GGUCACGUCUCAAUCAACUCAUCCUCCAGGGAAAUCCCUGGUUAAUUCAACAGCUCGCAGUCAAG” it is -0.134; for “GGUCACGUCUCAAUCAACUCUAUCCCAGGAGUUUCCUCCUGUAUUUUCAACAGCUCGCAGUCAAG” it is 0.204.
As to “GGUCACGUCUCAAUCAACUCUACUCCAGGAGUUUCCUCCUGCUAUCUCAACAGCUCGCAGUCAAG”, the binding signal (log2 fold change) was -0.00403.
The figure for “GGUCACGUCUCAAUCAACUCAAUCCCAGGAGUUUACUCCUGCAUUCUCAACAGCUCGCAGUCAAG” is 0.0426.
The figure for “GGUCACGUCUCAAUCAACUCAUUUCCAGGAGUUUGCUCCUGCAAUUUCAACAGCUCGCAGUCAAG” is -0.216.
As for “GGUCACGUCUCAAUCAACUCCCUAGAGGGGGGGAAAACCCCUUUACCCUCCCAUUCAACAGCUCGCAGUCAAG”, the binding signal (log2 fold change) was found to be 0.0991.
The figure for “GGUCACGUCUCAAUCAACUCAAUUCCAGGAGUUUUCUCCUGCUUUUUCAACAGCUCGCAGUCAAG” is -0.0436.
